From PubChem BioAssay AID2676 (National Center for Advancing Translational Sciences (NCATS), 2010)
Out of some 370,000 compounds screened, about 1,100 (0.3%) were called active. Inconclusive results, whose numbers are uncertain, are shown with a selection of clear calls. Calls come from the whole dose curve; as a rule, active = well fitted activation curve with a large enough effect; inconclusive = small, poorly fitted or top-dose-only effect; inactive = flat fitted curve, though single readings scatter. Potencies of inconclusive entries are doubtful fits and often do not repeat.

Molecular target: Relaxin receptor 1 (Homo sapiens) (UniProt Q9HBX9)
Experiment: qHTS Assay for Agonists of the Relaxin Receptor RXFP1; note: nearly all actives have a fitted effect of over 60% in size
Conditions: HEK293T-RXFP1 cAMP TR-FRET, 30 min; series mostly up to 57.5 µM; activation: at the top concentration
Method in brief: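 HEK293 cells stably expressing RXFP1, treated 30 min at 37C with compounds plus PDE4 inhibitor Ro 20174; cAMP measured by HTRF TR-FRET. Normalized to buffer and 29 nM porcine relaxin; EC50 by Hill fit.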
% is set by controls: 0 for no effect and ±100 for the full control effect; potency is the fitted concentration of half-maximal effect; tags give direction and shape of the fitted curve.

Sequence of UniProt Q9HBX9 (Q9HBX9 whole entry, looked up): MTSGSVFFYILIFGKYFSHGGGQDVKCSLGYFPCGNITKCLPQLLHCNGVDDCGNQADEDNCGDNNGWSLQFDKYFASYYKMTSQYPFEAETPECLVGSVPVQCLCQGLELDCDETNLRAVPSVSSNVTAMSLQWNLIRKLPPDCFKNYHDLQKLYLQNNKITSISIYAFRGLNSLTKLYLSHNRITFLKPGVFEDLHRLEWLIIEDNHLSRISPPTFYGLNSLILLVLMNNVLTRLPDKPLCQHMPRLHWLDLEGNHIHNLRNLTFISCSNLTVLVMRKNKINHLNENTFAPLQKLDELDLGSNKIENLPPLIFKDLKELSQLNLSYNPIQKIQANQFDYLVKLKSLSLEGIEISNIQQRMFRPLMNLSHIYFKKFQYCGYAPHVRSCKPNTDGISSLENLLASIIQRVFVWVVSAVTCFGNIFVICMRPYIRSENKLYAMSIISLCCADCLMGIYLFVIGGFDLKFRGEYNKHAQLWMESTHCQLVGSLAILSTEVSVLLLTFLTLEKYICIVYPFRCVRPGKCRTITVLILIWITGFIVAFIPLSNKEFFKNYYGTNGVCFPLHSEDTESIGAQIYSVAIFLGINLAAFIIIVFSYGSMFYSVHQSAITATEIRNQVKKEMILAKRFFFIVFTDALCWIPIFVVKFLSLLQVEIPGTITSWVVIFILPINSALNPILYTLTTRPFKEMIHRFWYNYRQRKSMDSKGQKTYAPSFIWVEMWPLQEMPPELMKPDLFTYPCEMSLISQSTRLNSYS

| Compound | activation | Potency |
| --- | --- | --- |
| CNC(=O)c1ccsc1NC(=O)c1ccc(S(=O)(=O)N2CCCc3ccccc32)cc1 | inactive: 6.9% | – |
| CCOC(=O)N1CCN(Cc2nc(N)nc(Nc3ccc(OCC)cc3)n2)CC1 | inactive: 2.76% | – |
| COc1ccc(C(=O)COC(=O)CN2C(=O)c3ccccc3C2=O)c(OC)c1 | – | inconclusive: 31.6 µM [activator, single point] |
| CCOCCCn1c(=N)c(C(=O)NCc2cccnc2)cc2c(=O)n3ccccc3nc21 | – | inconclusive: 20 µM [activator, partial curve] |
| Cc1ccc(C=C2C(=O)c3ccccc3C2=O)o1 | inactive: 3.24% | – |
| COC(=O)c1c(-c2cccnc2)csc1NC(=O)c1ccc2c(c1)OCO2 | – | inconclusive: 35.5 µM [activator, single point] |
| CCOc1ccc(CNC(=O)CSc2nnc(C)c3c(C)n(-c4ccc(Cl)cc4)nc23)cc1 | – | inconclusive: 10 µM [activator, partial curve] |
| CCN(CC)CCSc1c(C(C)C)cnc2c1c(=O)n(C)c(=O)n2C | inactive: 19.6% | – |
| CCc1ccc(C(=O)c2cn(CC(=O)NCCc3ccc(OC)c(OC)c3)c3nc(C)ccc3c2=O)cc1 | inactive: 0.493% | – |
| O=c1nc2sc3ccccc3n2c(=O)n1-c1ccc(Cl)c(Cl)c1 | – | inconclusive: 39.8 µM [activator, single point] |
| CC(C)C(=O)NNC(=O)CN1CCN(c2nc(-c3ccccc3)cs2)CC1 | – | inconclusive: 31.6 µM [activator, single point] |
| N#CCSc1nc(-c2ccccc2)nc2ccc(F)cc12 | – | inconclusive: 28.2 µM [activator, single point] |
| CC(C)C(=O)N(c1ccc2oc(=O)sc2c1)S(=O)(=O)c1cccs1 | inactive: -0.039% | – |
| CCOC(=O)C1CCN(C(=O)Cn2c(=O)cc(C)c3c(C)nn(C)c32)CC1 | – | inconclusive: 15.8 µM [activator, partial curve] |
| CCOc1ccccc1NC(=O)COC(=O)Cc1ccsc1 | inactive: 0.415% | – |
| COc1ccc(NC(=O)CCc2nnc3n(C)c(=O)c4sccc4n23)cc1 | – | inconclusive: 15.8 µM [activator, partial curve] |
| COc1cccc(CC(=O)Nc2sc3c(c2C(N)=O)CCCC3)c1 | – | inconclusive: 39.8 µM [activator, single point] |
| COc1ccc(OCCSc2nc3ccccc3c(=O)[nH]2)cc1 | – | inconclusive: 39.8 µM [activator, single point] |
| COCCNC(=O)CCc1nnc2ccc(N3CCC(C)CC3)nn12 | – | inconclusive: 31.6 µM [activator, single point] |
| Cc1ccc(NC(=O)CSc2ncc3c(n2)-c2ccccc2N(Cc2cccc(F)c2)S3(=O)=O)cc1F | – | inconclusive: 39.8 µM [activator, single point] |
| Cc1noc(NS(=O)(=O)c2ccc(N/C=C/C(=O)c3cccnc3)cc2)c1C | – | inconclusive: 20 µM [activator, partial curve] |
| O=S(=O)(c1ccc(NC(=S)N2CCN(c3ccc(O)cc3)CC2)cc1)N1CCOCC1 | inactive: -2.37% | – |
| COc1ccc(COc2ccccc2C(=O)NCc2ccccc2)cc1F | inactive: 0.968% | – |
| O=C(Nc1ccc(F)cc1)c1ccc(COc2ccccc2)cc1 | – | inconclusive: 28.2 µM [activator, partial curve] |

| Compound | activation | Potency |
| --- | --- | --- |
| CC(C)CCNC(=O)c1cccc(Nc2nc3ccccc3n3nnnc23)c1 | – | inconclusive: 31.6 µM [activator, single point] |
| O=C1N/C(=N\c2ccccn2)SC1Cc1ccccc1Cl (stereo not given) | – | inconclusive: 39.8 µM [activator, single point] |
| CCOc1ccc(CC(=O)NCc2ccc3c(c2)cc(C)n3C)cc1 | inactive: -0.645% | – |
| CCCCCc1cc(=O)oc2c(C(CCN3CCCCC3)c3cc(OC)c(OC)c(OC)c3)c(OC)cc(OC)c12 (stereo not given) | inactive: 1.47% | – |
| CCOc1ccccc1NC(=O)c1cc2c(Cl)nc3ccccc3c2s1 | – | inconclusive: 35.5 µM [activator, single point] |
| COc1ccc(C(=O)NCCc2nnc3ccc(SCC(=O)N4CCCCC4)nn23)cc1 | – | inconclusive: 25.1 µM [activator, partial curve] |
| CCn1c(=O)c2cc(C(=O)N(C)CC(OC)OC)sc2c2ccccc21 | – | inconclusive: 28.2 µM [activator, partial curve] |
| CC(NC(=O)CCCc1nnc2n(C)c(=O)c3sccc3n12)c1ccccc1 (stereo not given) | – | inconclusive: 14.1 µM [activator, partial curve] |
| COc1ccc(N(C)C(=O)NCc2noc3ccc(C)cc23)c(OC)c1 | inactive: 2.11% | – |
| CC(C)(C)c1ccc(C(=O)Nc2ccccc2C(=O)OCc2cc(=O)n3ccsc3n2)cc1 | – | inconclusive: 35.5 µM [activator, single point] |
| CCOC(=O)C1CCCN(C(=O)c2cccc(NC(=O)C(CC)CC)c2)C1 (stereo not given) | inactive: -0.584% | – |
| CCCN1CCC(NC(=O)Nc2cc(Cl)ccc2OC)CC1 | inactive: 0.83% | – |
| Cc1ccc(-n2ccc(=O)c(C(=O)Nc3ccc(S(=O)(=O)Nc4nccc(C)n4)cc3)n2)cc1 | – | inconclusive: 17.8 µM [activator, partial curve] |
| C=CCSc1nnc(NC(=O)Cn2cnc3c2c(=O)n(C)c(=O)n3C)s1 | – | inconclusive: 28.2 µM [activator, partial curve] |
| N#Cc1c(N)nc2c3c(sc(=N)c2c1N)NC(=O)CC3c1ccccc1 (stereo not given) | – | active: 28.2 µM |
| Cc1cccc(CNC(=O)c2cnc3sc(N4CCCCC4)nn3c2=O)c1 | – | inconclusive: 35.5 µM [activator, single point] |
| CC(Oc1ccccc1)C(=O)Nc1nnc(S(=O)(=O)N2CCCCC2)s1 (stereo not given) | – | inconclusive: 28.2 µM [activator, partial curve] |
| Cc1ccc2cc(CCNC(=O)CC(C)(C)C)c(=O)[nH]c2c1C | – | inconclusive: 39.8 µM [activator, single point] |
| Cc1ccc(Cn2c(SCC(=O)NCc3ccc(Cl)cc3)nc3ccsc3c2=O)cc1 | – | inconclusive: 35.5 µM [activator, single point] |
| CCc1nnc(NC(=O)C2CCN(c3ncnc4sc(C)c(C)c34)CC2)s1 | – | inconclusive: 35.5 µM [activator, single point] |
| CCC(=O)N1CC2(CC(c3cccc(NC(=O)COc4ccc(Cl)cc4)c3)=NO2)C[C@@H]1C(N)=O (stereo not given in full) | inactive: 9.84% | – |
| COc1ccc(NC(=O)CCc2nnc3ccc(N4CCC5(CC4)OCCO5)nn23)cc1 | – | inconclusive: 22.4 µM [activator, partial curve] |
| Cc1ccc(OCc2nc3ccccc3n2CC(C)C)cc1 | inactive: 1.19% | – |
| O=c1c2sc3ccccc3c2n(Cc2ccccc2)c(=O)n1Cc1ccccc1 | – | inconclusive: 39.8 µM [activator, single point] |

| Compound | activation | Potency |
| --- | --- | --- |
| CCOc1ccc(NC(=O)CSc2ncc3c(n2)-c2ccccc2N(C)S3(=O)=O)cc1 | – | inconclusive: 39.8 µM [activator, single point] |
| COC(=O)c1sc(NC(=S)NC(=O)c2ccccc2F)nc1C | – | active: 35.5 µM |
| Fc1ccc(N2N=C(c3cccs3)CC2c2ccccc2)cc1 (stereo not given) | – | inconclusive: 25.1 µM [activator, partial curve] |
| CCN1CCCC1CN(Cc1cc2cc(C)cc(C)c2[nH]c1=O)C(=O)Nc1ccccc1OC (stereo not given) | – | inconclusive: 39.8 µM [activator, single point] |
| CC(=O)c1cc2c(=O)c3cc(C)ccc3oc2nc1C | inactive: 3.97% | – |
| C#CCn1c(=NC(=O)CSC(C)=O)sc2cc(F)ccc21 | – | inconclusive: 31.6 µM [activator, single point] |
| O=C1C(=O)N(Cc2cccnc2)C(c2ccc(Br)cc2)/C1=C(\O)c1ccc2c(c1)OCCO2 (stereo not given) | – | inconclusive: 28.2 µM [activator, partial curve] |
| Cc1cnc(NC(=O)Cc2ccccc2Cl)s1 | inactive: 2.35% | – |
| CCN(CC)S(=O)(=O)c1cccc(N=Nc2c(O)c3ccccc3oc2=O)c1 | – | active: 15.8 µM |
| CC1CCN(S(=O)(=O)c2ccc3nc(N4CCN(c5ccccc5F)CC4)ccc3c2)CC1 | – | inconclusive: 11.2 µM [activator, partial curve] |
| CCOc1ccccc1NC(=O)CSc1nc(-c2cccs2)cc(C(F)(F)F)n1 | – | inconclusive: 31.6 µM [activator, partial curve] |
| CCOC(=O)CNc1c(-c2ccc(O)cc2)nc2ccccn12 | inactive: 4.17% | – |
| Cn1c(=O)nc2n(-c3ccc(Br)cc3)c3cccc(Cl)c3cc-2c1=O | – | inconclusive: 39.8 µM [activator, single point] |
| CC(=O)NCCNc1nc2c(-c3cccc(C(F)(F)F)c3)nnn2c2ccccc12 | – | inconclusive: 39.8 µM [activator, single point] |
| N#Cc1c(SCC(N)=O)nc(-c2ccccc2)c2c1CCCC2 | inactive: -0.458% | – |
| CC(=O)c1cc(-c2ccccc2)n(CC(=O)Nc2ccc(C)cc2C)c1C | inactive: -0.51% | – |
| Cn1nc(C(=O)Nc2ccc(Br)cc2)cc1C(=O)Nc1ccc(Br)cc1 | – | inconclusive: 14.1 µM [activator, partial curve] |
| O=[N+]([O-])c1cccc(OCc2cn3cccnc3n2)c1 | – | inconclusive: 28.2 µM [activator, partial curve] |
| COc1ccc(-n2c(SCC(=O)Nc3cccc4ccccc34)nc(O)cc2=O)cc1 | inactive: 2.79% | – |
| CCOc1ccc(NC(=O)Nc2nc3ccc(S(C)(=O)=O)cc3s2)cc1 | – | inconclusive: 31.6 µM [activator, single point] |
| Cn1c2ccccc2c2nnc(SCCN3CCOCC3)nc21 | – | inconclusive: 28.2 µM [activator, partial curve] |
| S=c1[nH]nc(-c2ccco2)n1-c1ccc(Cl)cc1 | – | inconclusive: 22.4 µM [activator, partial curve] |
